# Measured values from PubChem BioAssay (NCI).
# Several values for one entry are separate records, joined by “and”; a condition that tells them apart may be missing. Equal values may be shown once.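 Step 1: Grow cells in 96-well plates. Step 2: Expose to compound for 48 hours at 5 concentrations. Step 3: Interpolate endpoints linearly; if unreached, use highest concentration. GI50 is the concentration that inhibits growth by half. Definition used: TGI = concentration required for complete inhibition of growth.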
# System: NCI-H322M lung
# Experiment: NCI-60 cell line screen, 48 h
Structure (SMILES),GI50,TGI
CCCC(CCC)C(=O)OCC1(CO)C/C(=C\c2ccc(F)cc2)C(=O)O1 (stereo unspecified),13.1 µM,27.7 µM
CN(CCNCc1cn(C)c2c1ccc1ccccc12)CCNCc1cn(C)c2c1ccc1ccccc12,,2.73 µM
Cc1sc2c(c1C)C(c1ccc(Cl)cc1)=N[C@@H](CC(=O)OC(C)(C)C)c1nnc(C)n1-2,0.82 µM and 0.296 µM,41 µM and 19 µM
COc1ccc(C2SCC(=O)N2NC(=O)c2ccc(NC(C)=O)cc2)cc1 (stereo unspecified),,> 100 µM
C[N+]1(CCCl)CC[N+](C)(CCCl)CC1 (stereo unspecified),,> 100 µM
O=C(Cc1ccccc1)Nn1c(-c2ccccc2)nc2ccccc2c1=O,,> 100 µM
Clc1ccc(C2Nc3ccccc3C3=NCCN32)cc1 (stereo unspecified),,44.8 µM
Cn1c2ccc(Br)cc2c2c3c(c4c5ccccc5[nH]c4c21)C(=O)N(O)C3=O,0.72 µM,2.23 µM
CC1C2(C)OC(=N)C(C#N)(C(c3cccc([N+](=O)[O-])c3)O2)C1(C#N)C#N (stereo unspecified),,> 100 µM
CC(=O)[CH-]C(=O)c1ccccc1.CC(=O)[CH-]C(=O)c1ccccc1.CCOCC[O-].CCOCC[O-].[Ti+4],35.7 µM,> 100 µM
COc1cccc(/C=C/C(=O)c2ccc(Cl)cc2Cl)c1,12.4 µM,27.5 µM
CCCCCCCCCCCCCCCCCC(=O)OCC(COC(=O)CCCN)OC(=O)CCCN (stereo unspecified),,31.2 µM
CC1(C)C2CC(=O)C1(C)C(OCc1ccccc1)C2 (stereo unspecified),,> 100 µM
CC(C)=CCC/C(C)=C/CC/C(C)=C/CC/C(=C/CC/C(C)=C\CC/C(C)=C/CC/C(C)=C/CC/C(C)=C/Cc1cc(O)ccc1O)CO,,> 86.1 µM
O=C(O)CC1NCc2cc3ccccc3nc21 (stereo unspecified),,> 100 µM
CCN(CC)CCNC(=O)c1cn2c(ccc3sc4ccccc4c(=O)c32)n1,,19.4 µM
CC1=NN(c2nc(N)nc(CC#N)n2)C(C)(C)C1,,> 100 µM
COc1ccc2c(c1)CC[C@H](O)/C2=C/c1cc(OC)c(OC)c(OC)c1,0.565 µM,> 100 µM
O=C(O)CCC(=O)c1ccc(Cl)cc1,,> 100 µM
COc1ccccc1CNCCCN1C(=O)c2ccc3c4c(ccc(c24)C1=O)C(=O)N(CCCCNCCCN)C3=O,2.14 µM,5.41 µM
COC1=CC(=O)C2C(C1=O)C(c1ccccc1)[C@H]2C (stereo partly specified),,> 100 µM
O=C1Nc2ccc(Cl)cc2/C1=C\c1c(Cl)nc2sccn12,,> 100 µM
CCCCON1C[C@H](OC(C)=O)C(OC(C)=O)[C@H](OC(C)=O)C1 (stereo partly specified),,> 100 µM
Cc1csc(/N=C\c2c(O)c3ccccc3oc2=O)n1,,> 100 µM

Structure (SMILES),GI50,TGI
COC(=O)C1[C@H](c2cc(OC)c(OC)c(OC)c2)OC(=O)C1(C(=O)OC)C(=O)c1ccc2c(c1)OCO2 (stereo partly specified),,> 100 µM
O=C1c2cc(Cl)ccc2NC(=NCCCl)C2CSCN12 (stereo unspecified),,> 100 µM
N#CCN/C=C\C(=O)c1ccc(Cl)cc1,24.1 µM,> 100 µM
CCOc1cccc2ccc[n+](CC)c12,,> 100 µM
CC(=O)N=C1N(/C=C2\C(=O)Oc3ccccc3C2=O)C(=O)/C(=C/c2ccc(NC(C)=O)cc2)N1C,,> 100 µM
CC/C=C(\C(=C/CC)[N+](=O)[O-])[N+](=O)[O-],,> 100 µM
O=[N+]([O-])c1ccc(C=NCC2CCCN3CCCCC23)cc1 (stereo unspecified),,> 100 µM
CCCCCCCCCCC1OC([C@@H](O)CC[C@H](O)C2CC[C@@H](CCCCCCCC(O)CC3=CC(C)OC3=O)O2)CCC1O (stereo partly specified),,> 25 µM
C=C[C@@]1(O)CCCC2=C(C(=O)OCC)CC[C@]21C,,> 100 µM
COc1ccc(OC)c(NS(=O)(=O)c2ccc3nc(C)n(NS(=O)(=O)c4cc(OC)ccc4OC)c(=O)c3c2)c1,,> 100 µM
C=C(Nc1ccc([N+](=O)[O-])cc1[N+](=O)[O-])c1c/c(=N\NC(N)=S)c2ccccc2o1,,> 100 µM
COc1ccc(-c2c3c(n(C4OC(COC(C)=O)C(OC(C)=O)C(OC(C)=O)C4OC(C)=O)c(=S)c2C#N)CC(C)(C)CC3=O)cc1 (stereo unspecified),,> 100 µM
Cc1cccc(C)c1NC(=O)Nc1ccc(S(N)(=O)=O)cc1,,> 100 µM
O=C1C(Cl)C(c2ccccc2O)N1n1cnc2ccccc2c1=O (stereo unspecified),,> 100 µM
CC[C@H]1C=CCC[C@@]2(C[C@@H]3CC[C@H]4[C@@H](C(=O)OCCCCCCCCCCCCCCCC(=O)N(CCCN)C[C@@H](O)CCN)[C@@]5(CCC[C@@H](C)O5)NC(=[N+]34)N2)O1,,3.09 µM
O=S(=O)(/N=C(\NO)Nc1ccc(Cl)cc1)c1cccc2nsnc12,,92.7 µM
O=C(CNc1ccccc1[N+](=O)[O-])Nn1c(-c2ccccc2)nc2ccccc2c1=O,,41 µM
CCOC(=O)C(C)(C)Oc1ccc(/C=C/C(=O)c2ccc(Cl)cc2)cc1,,> 100 µM
O=C(/C=C/c1ccccc1)n1c(-c2ccc(Cl)cc2)nc2ccccc21,1.96 µM,6.52 µM
CC[N+]1(C)CCC(O)(c2ccc(OC)cc2)C(C(=O)c2ccc(OC)cc2)C1 (stereo unspecified),,30.4 µM
C/C=C/C1OC(O)(C(C)C(O)[C@H](C)C2OC(=O)/C(OC)=C/C(C)=C/[C@@H](C)[C@@H](O)[C@@H](C)C(O)C(C)C/C(C)=C/C=C/C2OC)C[C@@H](OC2CC(O)C(OC(N)=O)C(C)O2)C1C (stereo partly specified),,15.5 µM
Nc1ccc(C(=O)c2cn(CCN3CCOCC3)c3ccccc23)c2ccccc12,,> 100 µM
Cn1c(=O)c2nc(-c3ccc(Cl)cc3)oc2n(C)c1=O,,> 100 µM
O=C1OC(O)C(Oc2c(Cl)cccc2Cl)=C1Cl (stereo unspecified),,58 µM

Structure (SMILES),GI50,TGI
C=CCO[C@]1(CC=C)C(=O)C(=O)OC1C1COC(C)(C)O1 (stereo partly specified),,> 100 µM
O=C(O)C(Cl)(c1ccccc1)c1ccccc1,,> 100 µM
CCNC(=O)c1c(O)c2ccccc2[nH]c1=O,,> 100 µM
O=[N+]([O-])C1Cc2ccccc2OC1c1ccccc1 (stereo unspecified),,> 100 µM
COc1ccc(N2C(=O)C3c4[nH]c5ccc(F)cc5c4C4CCC(c5ccccc5)CC4C3C2=O)cc1 (stereo unspecified),,> 100 µM
Oc1ccc(Cl)cc1CN1CCN(Cc2cc(Cl)ccc2O)C1,,6.99 µM
FC(F)(F)c1cccc(-c2nc3ccccc3c3c2[C@@]2(N4CCCC4)CCCC[C@@H]32)c1,,> 100 µM
Cc1c(C(=O)/C=C/c2ccc(N(C)C)cc2)c(=O)n(-c2ccccc2)n1C,,> 100 µM
CCOP(=O)(OCC)C(N)c1ccc(Cl)cc1 (stereo unspecified),,> 100 µM
COc1cc(CNC2c3cc4c(cc3C(c3cc(OC)c(OC)c(OC)c3)[C@H]3C(=O)OCC23)OCO4)cc(OC)c1OC (stereo partly specified),,> 100 µM
Cc1ccc(NC(=O)CSc2nc(=O)[nH]c3nc[nH]c23)cc1,,> 100 µM
Cc1cc(CC(C)CC(C)(C)C)n(O)c(=O)c1 (stereo unspecified) (tested in a mixture with another compound),2.33 µM,42.2 µM
O=C1C=CC(=O)c2cc(Sc3ccccc3)c(=O)ccc21,,22.8 µM
O=c1[nH]c2cc(Cl)ccc2nc1/C(=N\O)C(O)c1ccc([N+](=O)[O-])cc1 (stereo unspecified),,> 100 µM
CCOC(=O)/C(C#N)=C/c1ccnc2ccccc12,,> 100 µM
CN(/N=C/c1ccnc2ccccc12)c1ccc(Cl)cc1[N+](=O)[O-],,> 100 µM
CCOP(=O)(OCC)C(C#N)Cc1ccco1 (stereo unspecified),,> 10 µM
C=C1C(=O)O[C@H]2[C@@H](O)[C@H](C)CCC[C@]3(C)O[C@H]3CC[C@@]3(C)O[C@@H]3C[C@@H]12,,12 µM
CCOC(=O)CC(=O)Nc1cccc2[nH]cnc12,,> 100 µM
Cc1cn([C@@H]2O[C@H](CO[Si](C)(C)C(C)(C)C)[C@]3(O[C@H]3C(=O)NN)[C@H]2O[Si](C)(C)C(C)(C)C)c(=O)[nH]c1=O,,25 µM
Cc1c(C(=O)/C=C/c2ccccc2O)c(=O)n(-c2ccccc2)n1C,,> 100 µM
CC1=C(C(=O)c2ccccc2)C23C(=O)N(c4ccccc4)C(=O)C2=C(O)C=CC3(O)N1 (stereo unspecified),,> 100 µM
COc1cc(Nc2nc3ccccc3cc2C(=O)Nc2ccc(F)c(F)c2)cc(OC)c1OC,3.67 µM,> 100 µM
COc1ccc(OC)c2c1[nH]c(=O)c1c3ncccc3cn21,4.35 µM,> 100 µM

Structure (SMILES),GI50,TGI
CC1(CCC(=O)OC2CCCCC2)OCCO1,,> 100 µM
COc1cc2c(=O)cnoc2cc1O,,> 100 µM
CCOC(=O)C(NC(=O)c1ccccc1)(N1CCOCC1)C(F)(F)F (stereo unspecified),,> 100 µM
Cc1nc(N2CCC3(CC2)CO[C@@H](C)[C@H]3N)c(CO)nc1Sc1ccnc(N)c1Cl,0.376 µM,> 100 µM
CC1OC(OC2C(OC(=O)[C@]34CCC(C)(C)C[C@H]3C3=CC[C@@H]5[C@@]6(C)CC[C@H](OC7OC(C(=O)O)C(O)C(OC8OCC(O)C(O)C8O)C7O)C(C)(C)[C@@H]6CC[C@@]5(C)[C@]3(C)CC4)OCC(O)C2O)C(O)C(OC2OCC(O)C(O)C2O)C1OC1OCC(O)C(OC2OCC(O)C(O)C2O)C1O (stereo partly specified),5.14 µM and 13.2 µM,16.1 µM and 26.2 µM
Cc1cc(S(=O)(=O)Nc2nc(N)nc(N(C)C)n2)c(SCC(=O)O)cc1Cl,,> 10 µM
CN1C(=O)C(=O)c2cc3c(c4c2c1cc1ccccc14)OCO3,,> 100 µM
Nc1nn2c(nc(N)c3c(N)[nH]nc32)c1N=Nc1ccc(Br)cc1,,> 95.5 µM
CCCCCCCCCCCCCCCCOC[C@@H](COC(c1ccccc1)(c1ccccc1)c1ccccc1)O[P+](=S)OC (stereo partly specified),,17.7 µM
O=S1Nc2c(Cl)cc(Cl)c3c(Cl)cc(Cl)c(c23)N1,,> 100 µM
Cc1ccc(N(CC(=O)Nc2ccc(S(=O)(=O)N3CCC(N4CCCC4)CC3)cc2)S(=O)(=O)c2ccc(Cl)cc2)cc1,2.07 µM,4.89 µM
Nc1nc2c(c(=O)[nH]1)C(c1ccc(Cl)cc1)C=C(c1ccccc1)N2 (stereo unspecified),,> 100 µM
CCCCCCCCCCCCCCCC(=O)N(CCCCCCCCCCC(=O)O)CC(O)C(O)C(OC1OC(CO)C(O)C(O)C1O)C(O)CO (stereo unspecified),,> 100 µM
O=C(NCc1cccc2ccccc12)N/N=C\c1ccc(Cl)cc1,,> 100 µM
CC(C)(C)C(=O)OC12/C(=N/O)CCCCCC1c1ccccc12 (stereo unspecified),,30.1 µM
C=C1C(=O)O[C@@H]2C[C@]3(C)CC[C@]4(C)[C@H](CC[C@@H]5[C@@]6(C)CCC(=O)C(C)(C)[C@@H]6CC[C@]54C)[C@H]3[C@H]12,,46 µM
CC(=O)NC1=C[C@@H]([C@H]2COC(C)(C)O2)OC1=O,,> 100 µM
O=Cc1cccc2c1Oc1c(cccc1C(=O)O)S2,,> 100 µM
CCOC(=O)C(Cc1cccn1C(=O)OC(C)(C)C)[N+](=O)[O-] (stereo unspecified),,> 100 µM
Cc1cc(N(CCC#N)S(C)(=O)=O)ccc1C=Nc1ccc(C(=O)NN2C(=O)/C(=C/c3ccc(N(CCC#N)CCC#N)cc3C)N=C2c2cc([N+](=O)[O-])ccc2Cl)cc1,,> 100 µM
CCOC(=N)CC(=O)c1ccccc1,,> 100 µM
CC(=O)OC1COC(Nc2nc(NCc3ccccc3)n(C)c(=O)c2N=O)C(OC(C)=O)C1OC(C)=O (stereo unspecified),,> 10 µM
COc1cc(-c2nc(-c3nc4ccccc4[nH]3)cc3c2[nH]c2ccccc23)cc(OC)c1OC,44.1 µM,> 100 µM
